According to patent publication US20080118591A1, “Bactericidal Formulations” (priority 2004, published 2008):
Some entries share one result that the patent states for a list of compounds. For at least one compound, name, drawing or mass did not settle the structure.

tested on: gram-negative bacteria; test: Rapid bactericidal effect of perfume ingredients (example 1, Mueller-Hinton broth, most probable number method); type: cell-based; settings: 30 s contact time; 0.1% or 0.2% (w/v) in Mueller-Hinton broth
Protocol: A sufficiently rapid bactericidal activity of a perfume ingredient against gram-negative bacteria according to the invention is determined as follows. The perfume ingredient must have a reduction factor of bacterial viability of at least 20-fold when it is tested in a concentration of 0.2% in Mueller Hinton Broth with a contact time of 30 seconds as described below. The perfume ingredient is dissolved in dimethylsulfoxide (DMSO) in a concentration of 4% (w/v). An aliquot (10 μl) of the solution is added to individual wells of microtiter plates.
200 μl of Mueller-Hinton broth containing a bacterial inoculum of 2.5×10^6 cfu (colony forming units) is added. After 30 s contact time, 20 μl of the test solution is removed and added to 180 μl of a neutralising solution (containing 3 g lecithin, 30 g Tween® 80, 5 g sodium thiosulfate, 1 g histidine, 30 g saponin, 8.5 g sodium chloride, 1 g tryptone and 1000 ml water). After 1 min incubation, the sample is serially diluted 1:1 in Micotiter-plates containing 100 μl Mueller-Hinton Broth per well, and then incubated for 24 h at 37° C. The maximal dilution showing bacterial growth is recorded to determine the number of surviving bacteria (so-called most probable number method, which is a well-known microbiological method), and results are compared to control samples without added perfumery chemicals. Reduction in bacterial viability is thus calculated by dividing numbers of bacteria in control samples by the number surviving in the treated samples. […].
Test organisms Escherichia coli (ATCC 10536), Salmonella typhimurium (ATCC 13311) and Pseudomonas aeruginosa (ATCC 15442) are used. For Pseudomonas aeruginosa the test solution contains additionally 0.1% EDTA.
A large number of commercially-available materials including a collection of 900 perfumery chemicals is tested. The materials are dissolved in dimethylsulfoxide (DMSO) in a concentration of 4% (w/v). An aliquot (5 μl or 10 μl) of each solution is added to individual wells of microtiter plates. 200 μl of Mueller-Hinton broth containing a bacterial inoculum of 2.5×10^6 cfu (colony forming units) is added. After 30 s and 60 s contact time, 20 μl of the test solution is removed and added to 180 μl of a neutralising solution (containing 3 g lecithin, 30 g Tween® 80, 5 g sodium thiosulfate, 1 g histidine, 30 g saponin, 8.5 g sodium chloride, 1 g tryptone and 1000 ml water). After 1 min incubation, the samples are serially diluted 1:1 in Micotiter-plates containing 100 μl Mueller-Hinton Broth per well, and then incubated for 24 h at 37° C. The maximal dilution showing bacterial growth is recorded to determine the number of surviving bacteria (so-called most probable number method, which is a well-known microbiological method), and results are compared to control samples without added perfumery chemicals. Reduction in bacterial viability is thus calculated by dividing numbers of bacteria in control samples by the number surviving in the treated samples.

| Structure (SMILES) | rapid (30 s) bactericidal activity on gram-negative bacteria (class) |
| --- | --- |
| CC1CCC(C(C)C)C(O)C1 (stereo not shown) [Menthol] | high (high activity indicating an at least 20 fold reduction in bacterial viability at 0.1% (w/v)) |
| CC(C)(C)C1CCC(O)CC1 (stereo not shown) [4-(1,1-dimethylethyl)-cyclohexanol] | high (high activity indicating an at least 20 fold reduction in bacterial viability at 0.1% (w/v)) |
| C=C(C)[C@@H]1CC=C(CO)CC1 [perillic alcohol] | very high (very high activity indicating an at least 100 fold reduction in bacterial viability at a concentration of 0.1% (w/v) perfume ingredient) |
| CC1CC2C3CCC(C3)C2CC1=O (stereo not shown) [5-methyltricyclo[6.2.1.02,7]undecan-4-one] | sufficient (sufficient activity indicating an at least 20 fold reduction in bacterial viability at 0.2% (w/v)) |
| CCCCCCC1(C)CCC(=O)O1 (stereo not shown) [5-hexyldihydro-5-methyl-2(3H)-furanone] | sufficient (sufficient activity indicating an at least 20 fold reduction in bacterial viability at 0.2% (w/v)) |
| CCC(C)C1CCCCC1=O (stereo not shown) [2-(1-methylpropyl)-cyclohexanone] | high (high activity indicating an at least 20 fold reduction in bacterial viability at 0.1% (w/v)) |
| CC(C)C1CCC(O)CC1 (stereo not shown) [4-(1-methylethyl)-cyclohexanol] | very high (very high activity indicating an at least 100 fold reduction in bacterial viability at a concentration of 0.1% (w/v) perfume ingredient) |
| Cc1cccc(CC(C)(C)CO)c1 [2,2-dimethyl-3-(3-methylphenyl)-propanol] | very high (very high activity indicating an at least 100 fold reduction in bacterial viability at a concentration of 0.1% (w/v) perfume ingredient) |
| CCCCCCC1CCCC(=O)O1 (stereo not shown) [6-hexyltetrahydro-2H-pyran-2-one] | high (high activity indicating an at least 20 fold reduction in bacterial viability at 0.1% (w/v)) |
| CCC(C)(O)CCCC(C)C (stereo not shown) [Tetrahydrolinalool] | sufficient (sufficient activity indicating an at least 20 fold reduction in bacterial viability at 0.2% (w/v)) |
| CC(C)C1CCC2(CCC(=O)O2)CC1 (stereo not shown) [8-(1-methylethyl)-1-oxaspiro[4.5]-decan-2-one] | high (high activity indicating an at least 20 fold reduction in bacterial viability at 0.1% (w/v)) |
| C=CC(C)CCCC(C)(C)O (stereo not shown) [Dihydromyrcenol] | high (high activity indicating an at least 20 fold reduction in bacterial viability at 0.1% (w/v)) |
| CCC(C)c1ccc2ncccc2c1 (stereo not shown) [6-(1-methylpropyl)-quinoline] | sufficient (sufficient activity indicating an at least 20 fold reduction in bacterial viability at 0.2% (w/v)) |
| CC(C)CCCC(C)(C)O [2,6-dimethylheptan-2-ol] | sufficient (sufficient activity indicating an at least 20 fold reduction in bacterial viability at 0.2% (w/v)) |
| CC(CCO)CCc1ccccc1 (stereo not shown) [3-methyl-5-phenyl-pentanol] | very high (very high activity indicating an at least 100 fold reduction in bacterial viability at a concentration of 0.1% (w/v) perfume ingredient) |
| CC1=CC(C)C(C=O)CC1 (stereo not shown) [2,4-dimethyl-3-cyclohexenecarboxaldehyde] | sufficient (sufficient activity indicating an at least 20 fold reduction in bacterial viability at 0.2% (w/v)) |
| CC1CCC(C(C)(C)O)CC1 (stereo not shown) [dihydroterpineol] | sufficient (sufficient activity indicating an at least 20 fold reduction in bacterial viability at 0.2% (w/v)) |
| CC(C)=CCC/C(C)=C/CO [Geraniol] | very high (very high activity indicating an at least 100 fold reduction in bacterial viability at a concentration of 0.1% (w/v) perfume ingredient) |
| CC(C)c1ccc2ncccc2c1 [6-isopropylquinoline] | high (high activity indicating an at least 20 fold reduction in bacterial viability at 0.1% (w/v)) |

| Structure (SMILES) | rapid (30 s) bactericidal activity on gram-negative bacteria (class) |
| --- | --- |
| C=CC(C)(O)CCC=C(C)CC (stereo not shown) [3,7-dimethyl-nona-1,6-dien-3-ol] | sufficient (sufficient activity indicating an at least 20 fold reduction in bacterial viability at 0.2% (w/v)) |
| CCCCCCCCO [octan-1-ol] | very high (very high activity indicating an at least 100 fold reduction in bacterial viability at a concentration of 0.1% (w/v) perfume ingredient) |
| CC(CO)CCCc1ccccc1 (stereo not shown) [2-methyl-5-phenyl-pentanol] | very high (very high activity indicating an at least 100 fold reduction in bacterial viability at a concentration of 0.1% (w/v) perfume ingredient) |
| CCCCCCC1=CCC(=O)O1 [5-hexyl-furan-2(3H)-one] | high (high activity indicating an at least 20 fold reduction in bacterial viability at 0.1% (w/v)) |
| CCC(C)(C)C1CCC(=O)CC1 [4-tert-pentyl-cyclohexanone] | high (high activity indicating an at least 20 fold reduction in bacterial viability at 0.1% (w/v)) |
| CC(=O)c1ccc2ccccc2c1 [1-(2-naphthalenyl)-ethanone] | sufficient (sufficient activity indicating an at least 20 fold reduction in bacterial viability at 0.2% (w/v)) |
| CC(C)C1CCC(CO)CC1 (stereo not shown) [4-(1-methylethyl)cyclohexyl-methanol] | very high (very high activity indicating an at least 100 fold reduction in bacterial viability at a concentration of 0.1% (w/v) perfume ingredient) |
| CC(C)=CCC/C(C)=C\CO [Nerol] | very high (very high activity indicating an at least 100 fold reduction in bacterial viability at a concentration of 0.1% (w/v) perfume ingredient) |
| CC1=CC(C)CC(C=O)C1 (stereo not shown) [3,5-dimethyl-cyclohex-3-en-1-carboxaldehyde] | sufficient (sufficient activity indicating an at least 20 fold reduction in bacterial viability at 0.2% (w/v)) |
| C=C(C)CCCC(C)CCO (stereo not shown) [3,7-dimethyl-7-octen-1-ol] | very high (very high activity indicating an at least 100 fold reduction in bacterial viability at a concentration of 0.1% (w/v) perfume ingredient) |
| CC1=CCC(C(C)CCO)CC1 (stereo not shown) [3-(4-methyl-3-cyclohexenyl)-butanol] | high (high activity indicating an at least 20 fold reduction in bacterial viability at 0.1% (w/v)) |
| CC1(C)/C(=C/CO)C2CCC1C2 (stereo not shown) [(E)-2-(3,3-dimethylbicyclo[2.2.1]hept-2-ylidene)-ethanol] | very high (very high activity indicating an at least 100 fold reduction in bacterial viability at a concentration of 0.1% (w/v) perfume ingredient) |
| CC(C)=CCCC(C)CCO (stereo not shown) [Citronellol] | very high (very high activity indicating an at least 100 fold reduction in bacterial viability at a concentration of 0.1% (w/v) perfume ingredient) |
| C=CCc1ccc(O)c(OC)c1 [Eugenol] | very high (very high activity indicating an at least 100 fold reduction in bacterial viability at a concentration of 0.1% (w/v) perfume ingredient) |
| Cc1ccc(C(C)C)c(O)c1 [Thymol] | very high (very high activity indicating an at least 100 fold reduction in bacterial viability at a concentration of 0.1% (w/v) perfume ingredient) |
| CC(C)=CCCC(C)=CC=O [Citral] | sufficient (sufficient activity indicating an at least 20 fold reduction in bacterial viability at 0.2% (w/v)) |
| CC(CC=O)CCc1ccccc1 (stereo not shown) [3-methyl-5-phenyl-pentanal] | sufficient (sufficient activity indicating an at least 20 fold reduction in bacterial viability at 0.2% (w/v)) |
| C=CCCCCCCCCO [dec-9-en-1-ol] | very high (very high activity indicating an at least 100 fold reduction in bacterial viability at a concentration of 0.1% (w/v) perfume ingredient) |
